The list shows a part of the results. Sequences were assembled here from the parent chain. Values near 0.05 are background.
B1: TEV protease; numbered along this chain (parent)
chain: MGESLFKGPRDYNPISSSICHLTNESDGHTTSLYGIGFGPFIITNKHLFRRNNGTLVVQSLHGVFKVKDTTTLQQHLVDGRDMIIIRMPKDFPPFPQKLKFREPQREERICLVTTNFQTKSMSSMVSDTSCTFPSGDGIFWKHWIQTKDGQCGSPLVSTRDGFIVGIHSASNFTNTNNYFTSVPKNFMELLTNQEAQQWVSGWRLNADSVLWGGHKVFMVKPEEPFQPVKEATQL

Variants of: B1
Assay: raw area under fraction-flipped curve 0-4 h after induction (AUC4h, not background-subtracted), DNA-recorder readout of cleavage of the substrate (dimensionless); higher = more cleavage of the substrate by the protease variant
Conditions: temperature: 34 °C; time window: 0-4 h after rhamnose induction
Experimental: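 In vivo DNA recorder in E. coli TOP10(DE3) ΔrhaA at 34 °C. Each TEVp single-site mutant (parent TEVp 0) is paired with a single-site variant of the 7-mer TEVs (canonical ENLYFQ|S). The substrate sits between flexible linkers in a Bxb1-sfGFP-TEVs-SsrA fusion, so cleavage stabilises Bxb1 and speeds flipping of a recombination array, read by NGS. The value is the raw area under the fraction-flipped curve over 0-4 h after rhamnose induction (AUC4h), with ≥20 reads per time point. It is not background-subtracted; inactive controls average about 0.047.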
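Also: Bxb1 expression induced with 0.2% (w/v) L-rhamnose at OD600 near 0.5, cultures sampled hourly, flipped fraction per protease–substrate barcode pair counted by paired-end Illumina sequencing.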

Variant | area with substrate ENLYFCS | area with substrate ENLYFES | area with substrate ENLYFFS | area with substrate ENLYFHS | area with substrate ENLYFIS | area with substrate ENLYFRS | area with substrate ENLYFTS | area with substrate ENLYFLS | area with substrate ENLYFNS | area with substrate ENLYFSS
C131I | 0.0696 | 0.0605 | 0.0716 | 0.0268 | 0.0471 | 0.0655 | 0.038 | – | – | –
C131H | 0.0643 | 0.09 | 0.0564 | – | 0.0495 | – | 0.0537 | 0.0653 | 0.0587 | 0.0748
N175Q | 0.0584 | 0.0855 | 0.0891 | 0.035 | 0.0508 | – | 0.0768 | – | – | 0.0602
Q97G | 0.0683 | – | – | – | – | – | – | – | 0.0689 | –
Q97L | – | – | – | – | 0.0508 | – | – | – | 0.0376 | –
I84V | – | 0.0639 | 0.0641 | – | 0.0512 | 0.0574 | 0.0532 | – | – | 0.0695
R109Y | 0.0634 | 0.0568 | 0.0575 | 0.0567 | 0.0501 | – | – | – | 0.0612 | –
R109K | 0.0604 | 0.0578 | – | 0.0774 | 0.0547 | – | 0.0409 | – | 0.0617 | –
S182C | 0.0577 | 0.0603 | 0.0596 | – | 0.0534 | 0.0592 | 0.0594 | – | – | –
S182V | 0.0375 | – | – | 0.0556 | – | – | 0.0403 | 0.055 | – | –
A170Q | – | 0.0635 | – | – | 0.0593 | – | – | – | – | –
I139T | 0.083 | 0.0569 | – | – | – | – | – | – | – | 0.0678
G153T | – | 0.0626 | – | – | 0.0492 | 0.0445 | 0.0475 | 0.0435 | – | –
G153I | 0.0657 | – | 0.0739 | 0.0813 | 0.0453 | 0.044 | 0.0428 | – | 0.0626 | –
A196V | 0.0616 | 0.06 | – | 0.0619 | – | 0.0721 | – | – | – | –
F163K | – | 0.0665 | – | – | 0.0433 | – | 0.077 | 0.0746 | – | –
F163N | 0.0678 | – | – | – | – | 0.0641 | – | – | – | –
L99V | 0.0525 | 0.0719 | 0.0689 | – | 0.0682 | 0.0411 | 0.0606 | 0.0594 | 0.0612 | 0.0477
L99N | 0.0455 | – | 0.0699 | – | 0.0579 | 0.0598 | 0.0739 | – | 0.0754 | 0.0564
G138F | 0.043 | – | – | – | – | – | – | – | – | –
G138M | 0.0688 | 0.0577 | – | 0.058 | – | – | 0.0807 | – | 0.048 | 0.0492

Variant | area with substrate ENLYFCS | area with substrate ENLYFES | area with substrate ENLYFFS | area with substrate ENLYFHS | area with substrate ENLYFIS | area with substrate ENLYFRS | area with substrate ENLYFTS | area with substrate ENLYFLS | area with substrate ENLYFNS | area with substrate ENLYFSS
T119Q | – | – | – | – | 0.045 | – | – | – | 0.0941 | –
T119A | 0.0595 | 0.0637 | 0.0615 | 0.0575 | 0.0732 | – | 0.0467 | – | – | –
T119R | 0.0641 | – | – | – | – | – | – | 0.0528 | – | –
T119C | 0.0598 | 0.0502 | – | 0.0695 | 0.0449 | – | – | – | 0.0556 | –
N178S | 0.0562 | 0.0686 | 0.0456 | 0.0572 | 0.0466 | 0.0787 | 0.0553 | 0.0645 | 0.0522 | 0.0689
I15G | – | 0.0652 | – | 0.0664 | 0.0503 | 0.0692 | 0.0505 | – | 0.0642 | –
N177G | 0.0499 | – | – | – | 0.0491 | – | – | – | – | 0.0767
K66Q | – | – | 0.0691 | – | 0.0645 | – | 0.0559 | – | – | –
P228Y | 0.06 | 0.0918 | – | 0.0393 | 0.0477 | – | – | – | – | 0.0695
P228S | 0.0481 | – | – | – | 0.0418 | – | 0.0685 | – | 0.065 | 0.0561
C111A | 0.0551 | 0.0757 | – | – | 0.0625 | – | 0.0604 | – | – | –
T159V | 0.072 | – | – | 0.0383 | – | – | – | – | – | –
Q227D | 0.0551 | – | 0.0623 | 0.0685 | 0.0535 | 0.0583 | 0.0795 | 0.0631 | – | 0.0695
F92L | – | 0.0887 | 0.066 | 0.0521 | 0.0838 | – | 0.065 | 0.0525 | 0.0587 | 0.049
V210P | 0.0655 | – | 0.0658 | – | 0.0534 | 0.0668 | – | – | – | –
S60W | – | 0.0571 | 0.0669 | 0.0486 | 0.0423 | – | 0.0568 | – | 0.0623 | –
L190P | 0.0723 | – | 0.0699 | 0.0479 | 0.0483 | 0.0561 | – | – | 0.0471 | –
T114N | 0.0713 | 0.065 | 0.059 | – | 0.0568 | – | 0.0859 | – | – | –
F173T | 0.0652 | 0.06 | 0.0769 | 0.0817 | 0.0647 | – | 0.0567 | 0.0552 | – | 0.0462
Q194I | 0.0333 | – | 0.0648 | – | 0.0631 | – | – | – | – | –
Q194W | 0.065 | – | 0.0859 | – | 0.0306 | – | 0.0636 | – | 0.0608 | –

Same assay, conditions: temperature: 34 °C; time window: 0-4 h after rhamnose induction

Variant | area with substrate ENLYFDS | area with substrate ENLYFGS | area with substrate ENLYFMS | area with substrate ENLYFPS | area with substrate ENLYFWS | area with substrate ENLYFKS | area with substrate ENLYFVS | area with substrate ENLYFYS
N175Q | 0.0649 | 0.0713 | 0.0637 | 0.0657 | – | – | – | –
Q97G | – | – | – | – | 0.0423 | – | – | –
Q97L | 0.0568 | – | 0.0525 | 0.0687 | – | – | – | –
I84V | 0.0661 | – | 0.0577 | 0.0612 | – | 0.0577 | 0.0616 | –
R109Y | – | – | 0.0986 | – | – | – | 0.0559 | –
R109K | – | 0.0595 | 0.0441 | 0.0658 | – | – | 0.0569 | –
S182C | – | – | 0.0432 | 0.0643 | 0.0598 | – | 0.0462 | –
S182V | 0.0559 | 0.0563 | – | – | 0.0609 | 0.0551 | – | –
A170Q | 0.0614 | – | – | 0.0366 | – | – | – | –
I139T | – | – | – | – | – | 0.0404 | – | –
G153T | 0.0392 | – | 0.0479 | 0.0407 | – | 0.0376 | – | 0.0417
G153I | – | – | 0.0537 | 0.0625 | – | 0.0364 | – | –
A196V | – | – | 0.0536 | – | – | – | 0.0613 | 0.0503
F163K | 0.0643 | – | – | 0.0608 | – | – | – | –
F163N | 0.0627 | – | – | – | – | – | – | –
L99V | 0.0596 | – | – | 0.0586 | – | – | – | –
L99N | – | – | 0.078 | 0.0786 | 0.0528 | – | – | 0.0606
G138M | – | – | – | 0.0648 | – | – | – | –
T119Q | 0.0479 | – | – | – | – | – | – | 0.0403
T119A | – | 0.0604 | 0.074 | 0.0736 | – | 0.0703 | – | –

Variant | area with substrate ENLYFDS | area with substrate ENLYFGS | area with substrate ENLYFMS | area with substrate ENLYFPS | area with substrate ENLYFWS | area with substrate ENLYFKS | area with substrate ENLYFVS | area with substrate ENLYFYS
T119R | – | – | – | – | – | – | 0.0772 | –
T119C | – | – | – | 0.0698 | – | – | – | –
N178S | – | – | – | – | 0.0513 | 0.067 | – | –
R51H | 0.0533 | – | – | – | – | – | – | –
I15G | 0.043 | – | 0.054 | 0.0707 | 0.051 | 0.0341 | 0.0528 | 0.0371
N177G | – | – | 0.0767 | 0.0495 | – | – | 0.045 | 0.0457
K66Q | 0.0501 | 0.0599 | 0.0693 | – | – | – | – | –
P228Y | – | – | 0.061 | 0.0378 | 0.0443 | – | – | –
P228S | 0.0599 | – | 0.0786 | 0.0417 | 0.0582 | – | – | –
C111A | – | – | – | 0.0614 | 0.0422 | – | 0.0441 | –
T159V | – | – | – | 0.077 | – | – | 0.0612 | –
Q227D | 0.0552 | – | 0.0667 | 0.0629 | 0.0485 | 0.0361 | 0.0566 | –
F92L | 0.0656 | 0.0512 | – | 0.0708 | – | 0.0724 | – | –
V210P | – | – | 0.0527 | 0.0561 | – | – | – | 0.0597
S60W | 0.0643 | – | 0.0449 | 0.0597 | – | 0.0657 | 0.0396 | 0.0591
L190P | – | – | 0.0321 | 0.0578 | 0.0571 | 0.0471 | – | 0.0499
T114N | – | – | 0.0646 | 0.0833 | 0.0589 | – | – | –
F173T | – | – | 0.0674 | 0.0632 | 0.0616 | 0.0723 | – | –
Q194I | – | – | – | 0.0519 | – | – | – | –
Q194W | – | – | – | 0.0524 | – | – | – | –

From the supplement of paper PMC12217912
